Whole data set: some 110,000 compounds, median “z-score” near -0.1, cut for the highest 2% near 2. Some of the results follow.

This assay addresses Metabotropic glutamate receptor 8 (Rattus norvegicus) (UniProt P70579). The assay is described as follows: rat mGluR8 modulators via GIRK flux, primary screen, cell-based, thallium flux, HTS (AID 488969). The note with it: HEK293 rat mGluR8, GIRK (G protein-gated inwardly rectifying potassium channel) thallium flux, FluoZin2; at 10 µM; stronger effect = higher value; submaximal glutamate (EC20) added with thallium.
Chain of UniProt P70579 (P70579 whole entry, looked up): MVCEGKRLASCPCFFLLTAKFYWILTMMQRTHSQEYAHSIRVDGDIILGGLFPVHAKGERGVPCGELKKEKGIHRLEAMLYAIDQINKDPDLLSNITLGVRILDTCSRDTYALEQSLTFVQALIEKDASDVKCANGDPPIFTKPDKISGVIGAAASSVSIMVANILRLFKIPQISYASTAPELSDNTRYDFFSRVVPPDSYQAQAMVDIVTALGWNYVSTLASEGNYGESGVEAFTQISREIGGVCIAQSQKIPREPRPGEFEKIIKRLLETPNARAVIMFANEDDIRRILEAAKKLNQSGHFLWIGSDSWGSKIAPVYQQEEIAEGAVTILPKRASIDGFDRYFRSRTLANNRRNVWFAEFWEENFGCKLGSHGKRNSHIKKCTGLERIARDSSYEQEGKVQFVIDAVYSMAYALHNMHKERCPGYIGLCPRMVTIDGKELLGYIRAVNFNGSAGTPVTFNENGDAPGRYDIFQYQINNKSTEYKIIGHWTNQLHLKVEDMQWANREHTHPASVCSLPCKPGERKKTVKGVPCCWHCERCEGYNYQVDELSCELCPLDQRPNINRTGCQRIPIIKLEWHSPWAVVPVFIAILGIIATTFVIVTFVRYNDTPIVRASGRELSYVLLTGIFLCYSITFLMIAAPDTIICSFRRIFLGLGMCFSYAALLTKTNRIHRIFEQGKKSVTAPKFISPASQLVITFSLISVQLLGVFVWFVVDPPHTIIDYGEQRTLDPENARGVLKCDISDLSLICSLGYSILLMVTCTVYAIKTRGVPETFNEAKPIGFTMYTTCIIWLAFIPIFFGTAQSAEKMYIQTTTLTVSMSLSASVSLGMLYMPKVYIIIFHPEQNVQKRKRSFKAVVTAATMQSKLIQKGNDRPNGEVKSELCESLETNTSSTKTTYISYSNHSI
Take `CN(CC(=O)N1CCCc2c1c(=O)oc1ccc(O)cc21)Cc1ccccc1`: the z-score was -0.0903.
`CCN1C(=O)C(CC(=O)NC2CCCCC2)N(CC)C1=O` (stereo not given) returned a z-score of -0.508.
The value for `O=C(Nc1ccc(Cl)cn1)c1cc2ccccc2o1` was -0.372; that for `CC1(C)CC(=O)c2sc(NC(=O)CN3C(=O)CCC3=O)nc2C1` was 2.59.
In turn, `CC1=C(C(=O)OC2CCCCC2)C(c2ccco2)C2=C(CC(C)(C)CC2=O)N1` (stereo not given) registered a z-score of 0.0288.
Regarding `O=C(NC1CCCC1)C(c1ccsc1)N(C(=O)Cc1cccs1)c1ccccc1` (stereo not given), the z-score came out at 0.427.
Then `O=C(N/N=C/c1ccc(-c2cccc(C(F)(F)F)c2)o1)c1ccccc1Br`, with -0.459.
`CCOC(=O)c1cnn(-c2ccccc2)c1-c1ccccc1` came in with a z-score of -0.214.
For the molecule `Cc1cccc(OCCn2c(NC(=O)c3ccco3)nc3ccccc32)c1`, the z-score is 1.66.
Regarding `CC(C)(C)c1nnc(NC(=O)Cc2ccc(Br)cc2)s1`, the z-score was 0.693.
The molecule `O=C(CSc1ncn(-c2ccccc2)n1)Nc1nc2ccccc2s1` gave a z-score of -0.407.
`CCOC(=O)c1cnc(SCC(=O)N2CCN(c3ccccc3)CC2)nc1N` showed a z-score of -0.108.
On to `CC(=O)Nc1cccc(/C(C)=N\NC(=O)c2ccc(Cn3nc([N+](=O)[O-])c(Cl)c3C)o2)c1`, for which the z-score is -0.798.
On to `O=C(Nc1cc(N2CCOCC2)ncn1)NC1(C(F)(F)F)Oc2ccc(Cl)cc2O1` (stereo not given), for which the z-score is 0.375.
In turn, `S=c1[nH]nc(-c2ccco2)n1-c1cccc2ccccc12` displayed a z-score of -0.398.
On to `CSc1[nH]c(=O)c(C(=O)O)cc1C#N`, for which the z-score is -0.112.
As to `Cc1ccc(-n2c(C)cn(C(=O)c3ccccc3)c2=S)cc1`, the z-score is -0.117.
`CCOC(=O)c1c(NC(=O)Cn2nnc(-c3ccccc3Cl)n2)sc(C)c1C` showed a z-score of -0.105.
As to `COC(=O)CCN(C(=O)c1ccc2c(c1)OCO2)c1ccccn1`, the z-score is 0.0413.
For the molecule `CC(=O)N1CCc2cc(C(=O)CN3CCN(c4ccccc4F)CC3)ccc21`, the z-score was -0.32.
On to `CCC(=O)N1c2ccccc2NC2=C(C(=O)CCC2)C1c1ccccc1` (stereo not given), for which the z-score was -0.398.
Molecule `CCOC(=O)c1ccc2[nH]c(C)c(CCC(C)=O)c(=O)c2c1` had a z-score of 0.552.
The molecule `COc1cccc(CN2CCC(N(CCc3ccccc3)Cc3ccccc3)CC2)c1OC` returned a z-score of -0.082.
Then `O=C(NC1(C(F)(F)F)N=C2SCCN2C1=O)c1ccccc1` (stereo not given), with -0.628; and `CCOc1ccccc1N1C(=O)c2cccnc2C1=O`, with 0.744; and `Cc1ccc2c(c1)CCCN2C(=O)C1CCCO1` (stereo not given), with 0.0129.
For the molecule `Cc1cc(C)cc(N(C(C)C(=O)NCCC2=CCCCC2)S(C)(=O)=O)c1` (stereo not given), the z-score turned out to be 0.122.
For `CCOc1ccccc1NC(=O)CC1NCCNC1=O` (stereo not given), the z-score was -0.495.
`Cc1ccc(NC(=O)CS(=O)CC(=O)N(c2ccc(C)cc2)C(C)C(=O)NC2CCCCC2)cc1` (stereo not given) displayed a z-score of -0.276.
Take `OCCSc1c(F)c(SCCO)c(SCCO)c(F)c1SCCO`: the z-score was found to be 0.711.
Molecule `Cn1c(O)c(C=NC(CC(N)=O)C(=O)O)c(=O)n(C)c1=O` (stereo not given) returned a z-score of 0.259.
Then `O=C(Oc1ccc2ccccc2c1Cl)N1CCCCCC1`, with -0.207; and `COc1ccc(N2CCN(S(=O)(=O)c3cccc4nsnc34)CC2)cc1`, with -0.213; and `O=C1C2CCCN2C(=O)N1CCN1CCN(c2ccccc2)CC1` (stereo not given), with -0.0541.
For `COc1ccc(CSCC(=O)N/N=C/c2ccccc2OCc2ccccc2)cc1`, the z-score came to 1.27.
Molecule `Cn1c(SCc2nc3ccccc3s2)nnc1-c1ccc2c(c1)OCO2` registered a z-score of -0.882.
`CCC(C)NC(=O)C1CCN(C(=O)c2ccccc2)CC1` (stereo not given): the z-score came to 0.537.
In turn, `CC(=O)N1CCc2cc(S(=O)(=O)NC(CC(C)C)C(=O)N3CCn4c3nc3ccccc34)ccc21` (stereo not given) displayed a z-score of -0.0969.
As for `Cc1cc(Cl)ccc1NC(=S)NCc1cccs1`, the z-score stood at 0.0494.
Turning to `O=C(c1sc2ccccc2c1Cl)N1CCN(c2ncccn2)CC1`, the z-score is -0.0901.
For `Cn1c(=O)oc2cc(S(=O)(=O)N3CCCC(C(=O)N4CCc5ccccc5C4)C3)ccc21` (stereo not given), the z-score amounted to 0.0668.
The molecule `COc1ccccc1N1CCN(/N=C/C=C\c2ccco2)CC1` returned a z-score of -0.216.
Molecule `CC(C)(C)c1[nH]nc2c1C(c1cccnc1)C(C#N)=C(N)O2` (stereo not given) gave a z-score of 0.285.
The molecule `Cc1nc2c3cnn(-c4ccccc4)c3ncn2n1` returned a z-score of -0.201.
Then `CN(C)c1ccc(C(CNC(=O)c2ccccc2F)c2c[nH]c3ccccc23)cc1` (stereo not given), with 0.0357; and `Cc1ccc2nc(/C(C#N)=C\c3ccc(N4CCOCC4)o3)[nH]c2c1`, with -1.6; and `COc1ccc(-c2cc(C(=O)Nc3cc(C)nn3-c3ccccc3)no2)cc1`, with -0.523.
Molecule `COC(=O)[C@H](C)NC(=O)NC(C)CCc1ccccc1` (stereo not given in full) displayed a z-score of -0.368.
As to `O=C(c1ccccc1)C(Sc1ncn[nH]1)c1ccccc1` (stereo not given), the z-score was -0.672.
Regarding `COc1ccc(OC)c(NC(=O)CCN2CCCCC2)c1`, the z-score is -0.459.
Then `Cc1ccc(C(=O)Nc2ccccc2C(=O)NCc2ccco2)cc1S(=O)(=O)N1CCCCC1`, with -0.376.
Then `NC(=O)c1ccc(-n2nc(C(F)(F)F)c3c2CCCC3)cc1`, with -0.0342.
Turning to `COC(=O)c1ccccc1NC(=O)Cn1cnc2c(cnn2-c2ccc(C)c(C)c2)c1=O`, the z-score turned out to be 1.51.
Then `CC(=O)Nc1ccc(NC(=O)CSc2nnc(-c3ccco3)n2Cc2ccco2)cc1`, with -0.443; and `COc1ccc(NC(=O)COC(=O)/C=C/C(=O)OCC(=O)Nc2ccc(OC)c(Cl)c2)cc1Cl`, with -0.209.
Regarding `O=C(NNC(=O)C1CCN(Cc2ccccc2)CC1)c1cccc(Cl)c1`, the z-score is 0.0829.
For `Cc1ccc(C(C)C)c(OCc2nnc(SCC(=O)Nc3nccs3)n2C)c1`, the z-score was found to be 0.133.
With `CC1(C)CC(=O)C=C(NC2CCS(=O)(=O)C2)C1` (stereo not given), the z-score is 0.134.
In turn, `Cc1oc(-c2ccc(Cl)cc2)nc1CN1CCC(C(=O)NCCCN2CCCC2=O)CC1` yielded a z-score of -0.893.
`OCCNc1nc2ccc(Cl)cc2[nH]1` registered a z-score of -0.829.
Regarding `CCc1ccc(NC(=O)Cc2ccc(-n3cccc3)cc2)cc1`, the z-score was -0.068.
`CCC[C@@H](NS(=O)(=O)c1ccc(C)cc1)C(=O)Oc1ccc2c3c(c(=O)oc2c1)CCC3` returned a z-score of -0.365.
Then `O=C(CSCc1ccc(Cl)cc1)Nc1ccccc1C(=O)N1CCOCC1`, with -0.0696; and `Nc1nc(SCc2ccccc2Cl)ns1`, with 0.317.
With `CCOC(=O)c1c(C)n(C)c2ccc(OC(=O)c3ccoc3)cc12`, the z-score amounted to 0.225.
In turn, `COc1cc(NC(=O)c2ccccc2Cl)ccc1NC(=O)c1ccco1` registered a z-score of -0.115.
The molecule `Cc1ccc2c(Cl)cc(Cl)c(OCC(=O)Nc3ccc(C)c(S(=O)(=O)N(C)C)c3)c2n1` displayed a z-score of 2.31.
For `Cc1cc(N2CCOCC2)nc2ccc(NC(=O)CCC(=O)N3CCCC(C)C3)cc12` (stereo not given), the z-score came to 2.7.
`CC(C)(C)c1cc(CN(CCO)CCO)cc(C(C)(C)C)c1O` showed a z-score of 0.0504.
`COc1ccc(Cl)cc1NC(=O)C(C)N(C)Cc1cccc(Cl)c1Cl` (stereo not given): the z-score was -0.242.
